± gives the standard deviation of the averaged measurements. The list shows a part of the results.

This assay has as its system PfAP2-G AP2 domain (GST-tagged). The experiment in a line: gcPBM binding intensity (ln(normalized median fluorescence intensity)); higher = stronger DNA binding. The method in brief:
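Binding of GST-tagged P. falciparum DNA-binding domains, expressed in E. coli and used at about 25 μg on average, was carried out for 1 h in 1× PBS containing 1% milk, 0.2 mg/ml BSA, 0.5% salmon testes DNA and 0.03% Triton X-100. The target was an Agilent 4 × 180k array of primer-extended double-stranded 36-bp intergenic genomic probes plus negative controls, read with Alexa488 anti-GST antibody at 488 nm. Binding intensity is the highest Masliner-normalised natural-log median intensity across replicate spots of either probe orientation.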
Consider “CTTTTATATGTCTAATGTACGGGCAATATAAATTTG [XGTACX_site8323]”, for which the “gcPBM binding intensity (ln)” value is 11 ± 0.63.

On to “GTTGAGAAAATATGTGCATGTCAGGTTAAATTTTTA [TGCATGCA_site744]”, for which the “gcPBM binding intensity (ln)” value stood at 9.99 ± 0.028.

On to “ATTATATCATCTAAAACATGCACACATATGTACTCT [TGCATGCA_site949]”, for which the “gcPBM binding intensity (ln)” value is 11.1 ± 0.67.

Take “ATATATATATATATATGTACATAATATATGTCCTAT [XGTACX_site5087]”: the “gcPBM binding intensity (ln)” value was 11.1 ± 0.52.

Regarding “GTAAGCATAAATATATGTACATACATATACAGATAT [XGTACX_site3361]”, the “gcPBM binding intensity (ln)” value worked out at 11.2 ± 0.57.

In the case of “TAAGATAAAAAAAATGCATGTTCTTATAATATTGTC [TGCATGCA_site939]”, the “gcPBM binding intensity (ln)” value was 9.53 ± 0.25.

For “ATTAGTTTACACATATGTACATATATTACAACAAAA [XGTACX_site275]”, the “gcPBM binding intensity (ln)” value was 11.2 ± 0.67.

As to “TATGGAAATATATATTGTACGTATGACCTTTAAAAA [XGTACX_site3935]”, the “gcPBM binding intensity (ln)” value was determined as 11.5 ± 0.93.

With “TTACAAAAAAATAATTGTACATACAATTTCTGTTAT [XGTACX_site877]”, the “gcPBM binding intensity (ln)” value stood at 11.1 ± 0.58.

Regarding “TTTATATGTATGAAGTGTACACATATATTGTATTTT [XGTACX_site5731]”, the “gcPBM binding intensity (ln)” value came out at 11.6 ± 0.82.

Regarding “GGTGATATAATATATACATGCACATATATATTATTA [TGCATGCA_site970]”, the “gcPBM binding intensity (ln)” value worked out at 9.9 ± 0.042.

With “TACGGACATACTAACGGACACACGTAAGAAAAAAAA [CACACA_site602]”, the “gcPBM binding intensity (ln)” value was found to be 11.1 ± 0.75.

“TTTATGTATTTTTATGCACACATGCGTGGCTTATAT [CACACA_site4374]”: the “gcPBM binding intensity (ln)” value worked out at 10.2 ± 0.2.

Take “AATAAATATCTGTACACACACAAATAAATACATATC [CACACA_site5108]”: the “gcPBM binding intensity (ln)” value is 11.4 ± 0.96.

“TATAATAAAAATAATACACACATATATAGCAATCGT [CACACA_site3241]”: the “gcPBM binding intensity (ln)” value came out at 10.12 ± 0.071.

Turning to “CAGAATAATTTTATCGGTACACACTGTATGCATAAT [XGTACX_site736]”, the “gcPBM binding intensity (ln)” value was 11 ± 0.49.

Regarding “TTTATAATAAAATTTTTACACACTTTAAAAAAAAAA [CACACA_site8070]”, the “gcPBM binding intensity (ln)” value was 9.91 ± 0.16.

As for “TTTTTTTCAATATTTGCACACGATTATAATATTTAA [CACACA_site2237]”, the “gcPBM binding intensity (ln)” value stood at 10.07 ± 0.071.

With “AATATTCGTAATTGATGTACTTGTAATTCATACATT [XGTACX_site8314]”, the “gcPBM binding intensity (ln)” value worked out at 11.1 ± 0.76.

Take “AAATTTTTTATTCTAATTAATATTTACACAATATAT [TGCATGCA_negctrl_site376]”: the “gcPBM binding intensity (ln)” value was 9.86 ± 0.11.

As for “TTCCATGTAGGACATGCATGCAGTTTTTAAAATATT [TGCATGCA_site481]”, the “gcPBM binding intensity (ln)” value came to 11 ± 0.69.

Take “TATTATATAAATATACGTACATATACTAACCTTTTA [XGTACX_site6317]”: the “gcPBM binding intensity (ln)” value came out at 11.6 ± 0.91.

Turning to “TTCTGTATAATATAAAAACAAAAATTAAATTAAAAC [CACACA_negctrl_site81]”, the “gcPBM binding intensity (ln)” value is 9.89 ± 0.24.

For the sequence “CATAAAATATAAAACACACACACATATATATATATA [CACACA_site223]”, the “gcPBM binding intensity (ln)” value amounted to 10.2 ± 0.38.

Regarding “TATGACATATCCTGTAGTACAACGTATATATAAGAT [XGTACX_site1327]”, the “gcPBM binding intensity (ln)” value is 11.4 ± 0.86.

Regarding “AATAAAAATAATGAATGTACATATATATATACAATA [XGTACX_site3342]”, the “gcPBM binding intensity (ln)” value worked out at 10.9 ± 0.4.

Take “ATATATAACGTGCACACACACATTTACGTATGAATA [CACACA_site6948]”: the “gcPBM binding intensity (ln)” value is 10.8 ± 0.45.

For the sequence “TTTTATTAAAACCACGCATGCAGAGGAAACGGTGAG [TGCATGCA_site1029]”, the “gcPBM binding intensity (ln)” value is 10.4 ± 0.34.

With “ATATATAATTTTTGCTGTACACAAAATATTAATTTA [XGTACX_site2057]”, the “gcPBM binding intensity (ln)” value was determined as 11.5 ± 0.86.

With “AAAAAAAACAATCTCATACACACTAGGGATTAATTA [CACACA_site1776]”, the “gcPBM binding intensity (ln)” value worked out at 9.81 ± 0.042.

Regarding “ATTTTTTTATAAAATTTTTATATAATTTATTATAAA [GTGCAC_negctrl_site96]”, the “gcPBM binding intensity (ln)” value was determined as 9.52 ± 0.22.

With “TGAACAAAAAAAAATTGTACTTTTTTTTTAATATTT [XGTACX_site7172]”, the “gcPBM binding intensity (ln)” value came out at 11.5 ± 0.98.

Take “TTTCTTCGAAATAGAACACTTGTGCAAAATAAGCAA [XGTACX_negctrl_site361]”: the “gcPBM binding intensity (ln)” value is 10.04 ± 0.078.

As to ATATATACTATAATAGTGCATTAAAAAAGTAAAAAT, the “gcPBM binding intensity (ln)” value stood at 10.2 ± 0.25.

As to “TAAAGAGAAATATGTACATGCGAAAATGCCTTAAAT [TGCATGCA_site1050]”, the “gcPBM binding intensity (ln)” value is 11.2 ± 0.68.

Regarding “AAAATAATCTTTTGATTGCACTGTTACATTTTTTCT [GTGCAC_site9563]”, the “gcPBM binding intensity (ln)” value was 9.87 ± 0.13.

As to “AGACAATAATATAATCGTACAATAAATAAAATAAAA [XGTACX_site5231]”, the “gcPBM binding intensity (ln)” value turned out to be 11.2 ± 0.59.

Take “AAATATAATATACAAAGTACTTTTTCATCTTATATA [XGTACX_site8771]”: the “gcPBM binding intensity (ln)” value came to 10.9 ± 0.53.

Take “AAATAATATAAACATACACACACACCGATATATATA [CACACA_site8945]”: the “gcPBM binding intensity (ln)” value turned out to be 9.8 ± 0.085.

“TTTCTAATTTATATCACACACATATAAATATAGTAA [CACACA_site6210]”: the “gcPBM binding intensity (ln)” value came out at 9.81 ± 0.028.

For the sequence “ATCATTCAAAAATGCTGTACTAGGGGAAAACGTGTT [XGTACX_site7168]”, the “gcPBM binding intensity (ln)” value came out at 10.9 ± 0.59.

Regarding “ATATATAGGTTCCCTTTTCTTTTTTTTTTTTTTTTT [CACACA_negctrl_site1159]”, the “gcPBM binding intensity (ln)” value turned out to be 10.4 ± 0.27.

Consider “ATGTATGAAAAAATGTGTACATAATTTTTTTTTTTT [XGTACX_site5444]”, for which the “gcPBM binding intensity (ln)” value worked out at 11.7 ± 1.

As to “AACAAAAGTAATTAAAAACAATACAAACATATGTTT [XGTACX_negctrl_site220]”, the “gcPBM binding intensity (ln)” value amounted to 9.78 ± 0.15.

On to “TGGATAAAATAAAAATGTACTTAACATTTATATTTT [XGTACX_site712]”, for which the “gcPBM binding intensity (ln)” value is 10.8 ± 0.51.

Turning to “TATATATATATAAGATGTACCCTTTGAAATAATAAT [XGTACX_site7215]”, the “gcPBM binding intensity (ln)” value amounted to 11.2 ± 0.51.

In the case of “TGATACTGCAAAAAATATAAAAAAATAATAAAATAA [CACACA_negctrl_site791]”, the “gcPBM binding intensity (ln)” value came to 9.745 ± 0.064.

In the case of “TTAAATGTTGGTTGTAGTACTCCATATGTTGTTTTA [XGTACX_site5312]”, the “gcPBM binding intensity (ln)” value stood at 11.5 ± 0.83.

For the sequence “CTTATGTGCATACCTACACACTTACATATATATATA [CACACA_site8973]”, the “gcPBM binding intensity (ln)” value was 10.5 ± 0.61.

With TTTGGAATATTAATTGTGCACTTAAAAAGTTAATTA, the “gcPBM binding intensity (ln)” value was 10.3 ± 0.33.

As for “TTACCATTTGAAAATTCACACACTTTATTTTGTTAT [CACACA_site3799]”, the “gcPBM binding intensity (ln)” value came to 9.74 ± 0.26.

For “AACATAAAACGTAATATATTACAAATATAAACAATC [CACACA_negctrl_site1675]”, the “gcPBM binding intensity (ln)” value stood at 9.92 ± 0.16.

Consider “ATTTATACATATAAACGTACATACATATATAATATT [XGTACX_site2969]”, for which the “gcPBM binding intensity (ln)” value was 11.4 ± 0.65.

Regarding “ATATATATATATATATGTACATATTTTATAACTGTA [XGTACX_site5395]”, the “gcPBM binding intensity (ln)” value is 11.3 ± 0.69.

Consider “TAAAAGTTCACCTGTACACACATATATATATGTACA [CACACA_site1707]”, for which the “gcPBM binding intensity (ln)” value amounted to 11.6 ± 0.85.

As for “TACTTTACACATATTTTTAATTATTCTGAATTCAAA [GTGCAC_negctrl_site253]”, the “gcPBM binding intensity (ln)” value worked out at 9.905 ± 0.049.

The values above are taken from the supplement of paper PMC11417369.
